In PubChem BioAssay AID1345083 (National Center for Advancing Translational Sciences (NCATS), 2018):
“And” between values parts separate entries of the source, which are not always exact repeats. Equal entries are not always repeated. Out of some 94,000 compounds screened, about 6,200 (6.6%) were called active. This list was built around the results that the source calls inconclusive (neither active nor inactive); the mix of calls is not that of the screen. The call rests on the fitted dose curve; in most records, active means well fitted inhibition curve with a large enough effect; inconclusive means small, poorly fitted or top-dose-only effect; inactive means flat fitted curve, though single readings scatter. A potency beside an inconclusive call is a rough fit, not a confirmed value.

Assay: Cytotoxic Profiling in HEK 293 Cell Line of Diverse Libraries Using Quantitative High-Throughput Screening; further: nearly all actives have a fitted effect of over 60% in size
Conditions: HEK 293 viability, ATP luminescence (CellTiter-Glo), 48-72 h; series mostly up to 115 µM
In short: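 CellTiter-Glo luminescence (cellular ATP) was read after 48 or 72 hr of compound exposure at 37 degree Celsius. Cells were HEK 293 plated at 250 cells/well.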
Potency means the concentration at half of the fitted maximal effect; tags describe the fitted curve by direction and shape.

Structure (SMILES)	Potency
O=C1NCc2ccccc2CC12CCCCN2Cc1ccc(F)cc1 (centres undefined)	inconclusive: 89.1 µM [inhibitor, single point]
Cc1cc(C(F)(F)F)nn1CC(=O)NCC1Cn2cccc2C(=O)N1Cc1ccccc1 (centres undefined)	inactive
COc1cccc(CN2Cc3nc(-c4cn[nH]c4)ccc3OCC2=O)c1	inconclusive: 112 µM [inhibitor, partial curve]
CC(=O)N1CCC(N[C@@H]2CC[C@@H]2NC(=O)CCn2nnc3ccccc32)CC1	inactive
COCCCNC(=O)c1ccc(Cn2ccn3nc4c(c3c2=O)CCCC4)cc1	inconclusive: 31.6 µM [inhibitor, partial curve]
COc1ccc(CN2CCC3(Cc4ccccc4CNC3=O)C2)c(O)c1 (centres undefined)	inconclusive: 89.1 µM [inhibitor, single point]
CNC(=O)N1CCC2(CC1)CC(Cc1ccc(C)cc1)CCO2 (centres undefined)	inconclusive: 79.4 µM [inhibitor, single point]
COc1ccccc1-c1ccc(C(=O)N2CCC(NC(=O)c3ccc(Cl)nc3)CC2)cc1	inconclusive: 50.1 µM [inhibitor, partial curve, poor fit] and inconclusive: 56.2 µM [inhibitor, partial curve, poor fit]
O=C([C@H]1C[C@H](Oc2ccccc2)CN1C(=O)CCCc1ccccc1)N1CCOCC1	inactive
CNC(=O)c1cc(C2CC2)nc2c1c(C1CCN(C(=O)Nc3ccccc3)C1)nn2C (centres undefined)	inconclusive: 89.1 µM [inhibitor, single point]
O=C(CCc1cccnc1)N1CC(COc2ccccc2)C2(C1)CN(c1ccccc1)C2 (centres undefined)	active: 89.1 µM
Cc1ccsc1C(=O)C1CCCN(Cc2ccc(C#CC(C)(C)O)cc2)C1 (centres undefined)	inconclusive: 50.1 µM [inhibitor, partial curve, poor fit]
COc1ccc(OCC(=O)N2CCC[C@H]2c2nc(-c3ccc(OC)cc3)no2)cc1	inconclusive: 56.2 µM [inhibitor, partial curve, poor fit]
Cc1ccccc1C(=O)N1CCCC(c2nn(-c3ccccn3)c(=O)[nH]2)C1 (centres undefined)	inactive
O=C(c1ccccc1)N1CCC2(CC1)SCC(=O)N2c1ccccc1	inactive
Cn1cccc1-c1noc(C2CCN(C(=O)c3cccc(C#N)c3)C2)n1 (centres undefined)	inconclusive: 50.1 µM [inhibitor, partial curve, poor fit]
COc1ccc(-c2cc(N3CCCC(NC(=O)c4cccc(C(F)(F)F)c4)C3)n[nH]2)cc1 (centres undefined)	inconclusive: 44.7 µM [inhibitor, partial curve]
Cn1ncc2c(C(=O)Nc3cccc(Cl)c3)cc(-c3ccccc3F)nc21	inconclusive: 44.7 µM [inhibitor, partial curve, poor fit]
O=C(NCCCO)c1ccc2c(c1)C1(CCN(CC3CC3)C1)CN2Cc1ccccc1 (centres undefined)	inconclusive: 63.1 µM [inhibitor, full curve]
CC(C)(C)C(=O)N1CCCC(C(=O)N2CCC(c3nc4ccncc4[nH]3)CC2)C1 (centres undefined)	inactive
O=S(=O)(Cc1ccccc1F)N1CCCC(Cn2c(C3CC3)nc3cccnc32)C1 (centres undefined)	inconclusive: 89.1 µM [inhibitor, single point]
COc1ccc(C(=O)N2CC(n3cc(COCC4CC4)nn3)C2)c(OC)n1	inactive

Structure (SMILES)	Potency
CCCNC(=O)C1COC2(CCN(C(=O)CC(C)(C)C)CC2)N1C(=O)c1cccc(OC)c1 (centres undefined)	inconclusive: 79.4 µM [inhibitor, partial curve, poor fit]
CC(C)c1ccc(CC(=O)N2CCCc3ncc(C(=O)NCCOc4ccccc4)cc32)cc1	active: 39.8 µM
NCCO[C@H]1C[C@@H](O)C12CCN(C(=O)Cn1cnnn1)CC2	inactive
O=C(Nc1ccccc1)C1=NO[C@@H]2CN(Cc3cc(F)ccc3F)C[C@H]12	inconclusive: 89.1 µM [inhibitor, partial curve, poor fit]
COc1ccc2c3c1CN(Cc1ccccc1)CC3=CC(C)(C)CO2	inconclusive: 50.1 µM [inhibitor, partial curve, poor fit]
CCCS(=O)(=O)N1CCC(Oc2nccnc2N2CCOCC2)C1 (centres undefined)	inactive
COc1ccc(S(=O)(=O)N2CC[C@H](NC(=O)Cc3cccs3)C[C@H]2C(=O)N[C@@H](CC2CCCCC2)C(N)=O)cc1	inconclusive: 79.4 µM [inhibitor, partial curve, poor fit]
Cc1cc(C(=O)N2CCOC[C@H](Oc3ccc(S(C)(=O)=O)cc3)C2)n(C)n1	inactive
O=C1CC(c2ccccc2)N(C(=O)CNC(=O)c2cnccn2)CCCCCCN1 (centres undefined)	inactive
C[C@H]1CN(C(=O)Nc2ccc(F)cc2)C[C@@H]1c1nc(-c2ccccc2)no1	inconclusive: 89.1 µM [inhibitor, single point]
CSc1ncc(CN2CCOC(Cc3cccc(C(F)(F)F)c3)C2)cn1 (centres undefined)	active: 22.4 µM
O=C(c1ccc2nc[nH]c2c1)N1CCCN(c2cc(-c3ccc(Br)cc3)[nH]n2)CC1	inconclusive: 89.1 µM [inhibitor, single point]
COc1cc2c(cc1CN1CCCC(CO)(CC=C(C)C)C1)OCCO2 (centres undefined)	inconclusive: 50.1 µM [inhibitor, partial curve, poor fit]
CNC(=O)c1cc(C2CC2)nc2c1c(C1CCN(C(=O)C3CCCC3)CC1)nn2C	inactive
CC(=O)N1CCCN(c2nccc(Nc3ccc(C)cc3)n2)C1	inconclusive: 100 µM [inhibitor, partial curve, poor fit]
COc1ccc(Cl)cc1C(=O)NC1CCCN(c2cc(-c3ccc(F)cc3)[nH]n2)C1 (centres undefined)	inconclusive: 44.7 µM [inhibitor, partial curve, poor fit]
COCCCNC(=O)c1nc2sccn2c1-c1ccccc1	inactive
COCCN1CCNc2nc(CNc3ccon3)n(Cc3ccccc3)c2C1=O	inconclusive: 100 µM [inhibitor, partial curve]
Cc1oc(-c2cccc(Oc3ccccc3)c2)nc1CN(C)Cc1cnc(N)nc1	inconclusive: 7.08 µM [inhibitor, full curve, poor fit]
CN(Cc1n[nH]c2c1CCCCC2)C(=O)c1cn(CC2CCCCC2)nn1	inconclusive: 35.5 µM [inhibitor, partial curve, poor fit]
O=C1NC2(CCCN(Cc3ccc(F)cc3)C2)COc2ccccc21 (centres undefined)	inconclusive: 56.2 µM [inhibitor, partial curve, poor fit]
O=C(Nc1ccccc1F)c1ccc2c(c1)n(Cc1ccccc1)c(=O)c1ccnn12	inconclusive: 79.4 µM [inhibitor, partial curve, poor fit]

Structure (SMILES)	Potency
COc1cccc(CCNC(=O)C2(c3ccc(Cl)cc3)CCOCC2)c1	inconclusive: 44.7 µM [inhibitor, partial curve]
Cc1ccc(S(=O)(=O)N2CCC(Oc3ncccc3C(=O)N3CCOCC3)C2)cc1C (centres undefined)	inactive
Cc1cccc(CC(=O)N2CCC(Cc3nc(-c4ccccc4)no3)CC2)c1	inconclusive: 50.1 µM [inhibitor, partial curve, poor fit]
Cc1ccc([S+](=O)([O-])N2CCCC(C(=O)N3CCC(c4nc5ccncc5[nH]4)CC3)C2)cc1 (centres undefined)	inconclusive: 50.1 µM [inhibitor, partial curve, poor fit]
COc1cccc(N2C(=O)NC(=NC3CCCCC3)C23CCCN(Cc2cccnc2)C3)c1 (centres undefined)	inactive
O=C(c1ccccc1F)N1CCc2nc(-c3ccc(Cl)cc3)nc(-c3ccccc3)c2C1	inconclusive: 50.1 µM [inhibitor, partial curve, poor fit]
O=C(Cc1c[nH]c2ncc(-c3ccccc3Oc3ccccc3)cc12)NCc1cccnc1	inconclusive: 50.1 µM [inhibitor, partial curve, poor fit]
Cc1nccn1CCNC(=O)c1ccc(CC2CCN(S(C)(=O)=O)CC2)cc1	inconclusive: 100 µM [inhibitor, single point]
Cc1nn(-c2ccccc2)c2c1C(C)N(CC1CN([S+](C)(=O)[O-])C1)C2=O (centres undefined)	inactive
CC(C)(C)C(=O)N1CCN(c2ccnc3ccnn23)CC1	inactive
NC(=O)c1cccc(-c2n[nH]c3c2CC(=O)N(CCOc2ccccc2)C3)c1	inconclusive: 63.1 µM [inhibitor, partial curve, poor fit]
O=C(Cc1ccc(F)cc1)N1CCN(c2cc(C(F)(F)F)ncn2)CC1	inconclusive: 89.1 µM [inhibitor, single point]
Cc1cc(C(=O)NCC2Cn3cccc3CN2C)nn1C (centres undefined)	inactive
CN[C@@H]1[C@H](O)[C@H](CO)O[C@@H]1CNC1CCCCC1	inactive
O=C(c1ccc(Cl)cc1)N1CCN(C(=O)c2nnn3c2COC(c2ccccc2)C3)CC1 (centres undefined)	inconclusive: 50.1 µM [inhibitor, partial curve, poor fit]
Cn1ncc(N2CCC(C(=O)NCC3CCN(Cc4cccc(F)c4)CC3)C2)cc1=O (centres undefined)	inactive
Cc1ccc(CC(=O)N2CCC(Cc3nc(-c4cnccn4)no3)CC2)cc1	inactive
COc1ccccc1C(=O)NC[C@H]1COCc2nc3cc(C)ccc3n21	inconclusive: 112 µM [inhibitor, partial curve, poor fit]
CCc1nc(-c2ccc(OC3CCN(S(=O)(=O)c4cn(C)cn4)C3)cc2)no1 (centres undefined)	inconclusive: 56.2 µM [inhibitor, partial curve, poor fit]
c1cncc(-c2cc(-c3ccc4cn[nH]c4c3)cn3cncc23)c1	inconclusive: 100 µM [inhibitor, partial curve, poor fit]
